# Reference: the supplement of paper PMC9446081
# The campaign covered roughly 39,000 compounds. About 220 (0.56%) showed activity. The list shows a part of the results.
# Test system: Escherichia coli K-12 BW25113
# Assay: relative growth (OD600 normalised to plate interquartile mean) (fraction); higher = less growth inhibition, active = 0.2 or less
# Settings: 50 µM; LB; incubation time: overnight (16-24 h)
# 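Also: static incubation at 37 °C against the wild-type strain, values averaged over two biological replicates.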
row,SMILES,relative growth
1,C[C@@H]1CN([C@H](C)CO)C(=O)c2cc(NC(=O)Nc3ccc(C(F)(F)F)cc3)ccc2O[C@H]1CN(C)C(=O)Nc1ccc(F)cc1,inactive: 1.02
2,CC(C)NC(=O)N(C)C[C@@H]1OCCCC[C@@H](C)Oc2ccc(NS(=O)(=O)c3cn(C)cn3)cc2C(=O)N([C@H](C)CO)C[C@@H]1C,inactive: 0.973
3,COc1ccc(NC(=O)Nc2ccc3c(c2)C(=O)N([C@@H](C)CO)C[C@@H](C)[C@@H](CN(C)C(=O)CCC(F)(F)F)OCCCC[C@H](C)O3)cc1,inactive: 1.02
4,C[C@@H]1CN([C@@H](C)CO)C(=O)c2cc(NC(=O)NC3CCCCC3)ccc2O[C@@H](C)CCCCO[C@H]1CN(C)C(=O)Nc1ccc2c(c1)OCO2,inactive: 1.02
5,Cc1ccc(S(=O)(=O)N2C[C@H](O)COC[C@@H]3O[C@@H](CC(=O)NCCN4CCCCC4)CC[C@H]32)cc1,inactive: 1.02
6,C[C@@H]1CN([C@@H](C)CO)C(=O)c2cccc(NS(=O)(=O)c3ccc(F)cc3)c2O[C@@H]1CN(C)S(=O)(=O)c1cn(C)cn1,inactive: 1.02
7,COCC(=O)N1C[C@@H](C)[C@H](OC)CN(C)C(=O)c2cc(NC(=O)c3ccc(OC)cc3)ccc2OC[C@H]1C,inactive: 0.987
8,Cc1ccc(S(=O)(=O)Nc2ccc3c(c2)C(=O)N([C@H](C)CO)C[C@@H](C)[C@@H](CN(C)C(=O)NC2CCCCC2)OCCCC[C@@H](C)O3)cc1,inactive: 1.01
9,C[C@H](CO)N1C[C@H](C)[C@@H](CN(C)Cc2ccc(C(F)(F)F)cc2)Oc2c(NC(=O)CCCCCC(=O)Nc3ccccc3N)cccc2C1=O,inactive: 0.99
10,COc1ccc(NC(=O)Nc2ccc3c(c2)CC(=O)N([C@H](C)CO)C[C@@H](C)[C@@H](CN(C)CC2CCCCC2)O3)cc1,inactive: 0.977
11,C[C@@H]1CN([C@@H](C)CO)C(=O)c2cccc(NC(=O)Nc3cccc4ccccc34)c2O[C@H]1CN(C)C(=O)Nc1ccc2c(c1)OCO2,inactive: 1
12,C[C@@H]1CCCCO[C@@H](CN(C)S(=O)(=O)c2ccc(F)cc2)[C@@H](C)CN([C@@H](C)CO)C(=O)c2cc(NC(=O)C3CCCCC3)ccc2O1,inactive: 0.986
13,C[C@H](CO)N1C[C@H](C)[C@H](CN(C)S(C)(=O)=O)OCc2cn(nn2)CCCC1=O,inactive: 0.979
14,COCC(=O)N(C)C[C@H]1Oc2cc(C#C[C@@H](C)O)ccc2S(=O)(=O)N([C@@H](C)CO)C[C@H]1C,inactive: 0.966
15,COC(=O)C1=C(C)NC(C)=C(C(=O)OCC(C)C)C1c1ccccc1[N+](=O)[O-] (stereo unspecified),inactive: 0.849
16,C=CCOC(=O)[C@H]1[C@@H]2C(=O)O[C@@H](c3ccccc3)[C@@H](c3ccccc3)N2[C@@H](c2ccc(OCCOC(=O)[C@@H]3C[C@@H]4C(=O)N[C@@H](CC(C)C)C(=O)N4[C@@H]3c3ccc(O)cc3)cc2)[C@]12C(=O)Nc1ccccc12,inactive: 1.07
17,C[C@H](CO)N1C[C@H](C)[C@@H](CN(C)C(=O)Nc2ccccc2)Oc2ccc(NC(=O)CCCCCC(=O)Nc3ccccc3N)cc2C1=O,inactive: 0.945
18,C[C@@H]1CN([C@H](C)CO)C(=O)Cc2cc(N(C)C)ccc2O[C@H]1CN(C)C(=O)Nc1ccc2c(c1)OCO2,inactive: 0.983
19,O=C(C[C@@H]1C[C@H]2c3cc(NS(=O)(=O)c4ccc(F)cc4)ccc3O[C@H]2[C@@H](CO)O1)NCc1cccc(F)c1,inactive: 0.98

row,SMILES,relative growth
1,Cc1noc(C)c1S(=O)(=O)Nc1ccc2c(c1)CC(=O)N([C@H](C)CO)C[C@H](C)[C@@H](CN(C)S(=O)(=O)c1ccc(F)cc1)O2,inactive: 0.972
2,C=CCOC(=O)[C@@H]1[C@H]2C(=O)O[C@H](c3ccccc3)[C@H](c3ccccc3)N2[C@H](c2ccc(OCCOC(=O)[C@@H]3C[C@@H]4C(=O)N[C@@H](Cc5ccccc5)C(=O)N4[C@@H]3c3ccc(O)cc3)cc2)[C@@]12C(=O)Nc1ccccc12,inactive: 1.06
3,COc1cccc(C#Cc2ccc3c(c2)O[C@@H](CN(C)C(C)=O)[C@@H](C)CN([C@H](C)CO)S3(=O)=O)c1,inactive: 1.03
4,C[C@@H]1CCCCO[C@@H](CN(C)C(=O)Nc2ccc(F)cc2)[C@H](C)CN([C@@H](C)CO)C(=O)c2cc(NS(=O)(=O)c3ccccc3)ccc2O1,inactive: 1.01
5,COc1ccc(S(=O)(=O)Nc2ccc3c(c2)C(=O)N([C@H](C)CO)C[C@@H](C)[C@H](CN(C)Cc2ccccc2)OCCCC[C@H](C)O3)cc1,inactive: 0.989
6,C[C@@H]1CN([C@H](C)CO)C(=O)Cc2cc(NS(C)(=O)=O)ccc2O[C@@H]1CN(C)Cc1ccc2c(c1)OCO2,inactive: 0.992
7,CCOC(=O)Cn1cccc2oc(=O)nc1-2,inactive: 0.98
8,Cc1ccc(S(=O)(=O)Nc2ccc3c(c2)C(=O)N([C@H](C)CO)C[C@H](C)[C@H](CN(C)Cc2ccc(Cl)c(Cl)c2)OCCCC[C@H](C)O3)cc1,inactive: 0.838
9,C[C@@H]1CN([C@H](C)CO)C(=O)c2cc(NC(=O)Nc3ccc(F)cc3)ccc2O[C@@H]1CN(C)Cc1ccc(Oc2ccccc2)cc1,inactive: 1.03
10,O=C(C[C@@H]1CC=CCC[C@@H](Cc2ccc(F)cc2)C(=O)OC[C@H](Cc2c[nH]c3ccccc23)NC1=O)N[C@@H](CO)Cc1ccccc1,inactive: 0.958
11,Cc1cc(C(=O)Nc2cccc3c2O[C@H](CN(C)C(=O)Nc2ccccc2)[C@H](C)CN([C@@H](C)CO)C3=O)n(C)n1,inactive: 1.03
12,C[C@@H]1CN([C@H](C)CO)C(=O)c2cccc(NS(=O)(=O)c3cn(C)cn3)c2O[C@H]1CN(C)Cc1ccc2c(c1)OCO2,inactive: 0.994
13,CCCNC(=O)N1C[C@@H](O)COC[C@H]2O[C@@H](CC(=O)N3CCN(C)CC3)CC[C@@H]21,inactive: 1.02
14,Cc1noc(C)c1NC(=O)N[C@H]1C=C[C@H](CC(=O)NCCCN(C)C)O[C@@H]1CO,inactive: 0.995
15,CC(=O)c1ccc(OCc2c(-c3ccccc3)nnn2CC(=O)NS(=O)(=O)c2ccc(F)cc2)cc1,inactive: 1.02
16,Cc1cc(C(=O)Nc2cccc3c2O[C@H](CN(C)Cc2ccncc2)[C@@H](C)CN([C@H](C)CO)C3=O)n(C)n1,inactive: 0.953
17,COc1cccc(C#Cc2cnc3c(c2)C(=O)N([C@H](C)CO)C[C@@H](C)[C@@H](CN(C)C(=O)C2CCC2)O3)c1,inactive: 0.925
18,O=C(C[C@H]1CC[C@H]2NC[C@H](O)COC[C@@H]2O1)NCCN1CCCC1,inactive: 0.996
19,CO[C@H](CN(C)S(=O)(=O)c1ccc(F)cc1)[C@@H](C)CN([C@H](C)CO)S(=O)(=O)c1cccc(Cl)c1,inactive: 0.928

row,SMILES,relative growth
1,Cc1noc(C)c1NC(=O)Nc1cccc2c1O[C@H](CN(C)Cc1ccc(Cl)c(Cl)c1)[C@H](C)CN([C@H](C)CO)C2=O,inactive: 0.98
2,CC(C)CC#Cc1cnc2c(c1)C(=O)N([C@@H](C)CO)C[C@@H](C)[C@H](CN(C)C(=O)CN1CCOCC1)O2,inactive: 0.846
3,CC(C)NC(=O)Nc1ccc2c(c1)C(=O)N([C@@H](C)CO)C[C@@H](C)[C@@H](CN(C)C(=O)Nc1ccccc1)OCCCC[C@@H](C)O2,inactive: 1
4,CCn1c(Cl)nc2c1c(=O)n(C)c(=O)n2C,inactive: 0.927
5,Cc1cn([C@H]2C[C@H](N=[N+]=[N-])[C@@H](CO)O2)c(=O)[nH]c1=O,active: 0.048
6,COc1ccc(S(=O)(=O)N(C)C[C@H]2Oc3ccc(NS(=O)(=O)c4cccs4)cc3CC(=O)N([C@@H](C)CO)C[C@@H]2C)cc1,inactive: 0.987
7,COc1ccc2c3c([nH]c2c1)[C@@H](CO)N(C[C@]13CN(C1)S(=O)(=O)c1cccs1)C(=O)c1ccccc1,inactive: 1
8,CN1CCN(c2c(F)cc3c(=O)c(C(=O)O)cn4c3c2SCC4)CC1,active: 0.0436
9,O=C(/C=C/c1ccc(O)cc1)[C@H]1C(=O)[C@H]([C@@H]2O[C@H](CO)[C@@H](O)[C@H](O)[C@H]2O)C(=O)[C@@](O)([C@@H]2O[C@H](CO)[C@@H](O)[C@H](O)[C@H]2O)C1=O,inactive: 1.03
10,C[C@H]1CN([C@@H](C)CO)C(=O)c2cc(NC(=O)Nc3cccc4ccccc34)ccc2O[C@H]1CN(C)Cc1ccccc1,inactive: 1.02
11,C[C@@H]1CCCCO[C@@H](CN(C)C(=O)Nc2cccc3ccccc23)[C@H](C)CN([C@@H](C)CO)C(=O)c2cc(NS(=O)(=O)c3cccs3)ccc2O1,inactive: 1.03
12,C[C@H]1CN([C@@H](C)CO)C(=O)c2cccc(NC(=O)Nc3cccc4ccccc34)c2O[C@H]1CN(C)Cc1ccc(C(=O)Nc2ccccc2N)cc1,inactive: 1.01
13,O=C1CCC(C(=O)N2CCN(CC3CC3)[C@@H]3CS(=O)(=O)C[C@@H]32)=NN1,inactive: 1
14,CC(C)=CCc1c2c(c3occ(-c4ccc(O)cc4)c(=O)c3c1O)C=CC(C)(C)O2,inactive: 0.883
15,C[C@H]1CN([C@@H](C)CO)C(=O)c2c(c3ccccc3n2C)-c2ccccc2CO[C@@H]1CN(C)C(=O)Nc1ccc(-c2ccccc2)cc1,inactive: 1.02
16,C=CC[C@@H](CC(=O)N[C@@H](CO)Cc1ccccc1)C(=O)NCCOC(=O)[C@H](CC=C)CC(=O)OC(C)(C)C,inactive: 1.02
17,C[C@@H]1CCCCO[C@@H](CN(C)Cc2ccc(C(F)(F)F)cc2)[C@@H](C)CN([C@H](C)CO)C(=O)c2cc(NS(=O)(=O)c3ccccc3)ccc2O1,inactive: 1.03
18,CCS(=O)(=O)N1C[C@]2(CCN(CC2)S(=O)(=O)c2cn(cn2)C)c2c(n(c3cc(ccc23)OC)C)[C@H]1CO,inactive: 0.986
